In all, about 350,000 compounds went through this assay and about 9,900 (2.8%) were called active. This list was built around the results that the source calls inconclusive (neither active nor inactive); the mix of calls is not that of the screen. Calls come from the whole dose curve; as a rule, active = well fitted activation curve with a large enough effect; inconclusive = small, poorly fitted or top-dose-only effect; inactive = no such curve, though single readings can be large or run the other way. No potency is given beside an inconclusive call; the fits are too rough.
Assay: A quantitative high throughput screen for small molecules that induce DNA re-replication in MCF 10a normal breast cells. For activity, positive = re-replication: % of control where 0% means no effect. Note: nearly all actives have a fitted effect of over 50% in size.
Details: MCF 10A DNA re-replication, Hoechst nuclear intensity, 48 h; activity, positive = re-replication: at 46.1 µM (top of the series)
Potency is the fitted concentration of half-maximal effect; tags give direction and shape of the fitted curve.

Row | Compound | Potency | activity, positive = re-replication
1 | COC(=O)c1cc(C(=O)OC)cc(N2C(=O)CC(NNC(=O)c3ccccc3Br)C2=O)c1 (stereo unspecified) | inconclusive [activator, partial curve, poor fit] | –
2 | COc1ccccc1N1CCN(C(=O)c2oc3ccc(F)cc3c2C)CC1 | inconclusive [activator, single point] | –
3 | CCCN(Cc1nnc(-c2ccccc2Cl)o1)C(=O)c1oc2ccccc2c1C | inconclusive [activator, single point] | –
4 | COCC(=O)N1CCCC(C(=O)c2ccc(-c3ccccc3)cc2)C1 (stereo unspecified) | inconclusive [activator, partial curve, poor fit] | –
5 | CCOC(=O)C1=C(C)Nc2ncnn2C1/C=C/c1ccccc1 (stereo unspecified) | – | inactive: 63.5%
6 | O=C(CCN1CCCCCC1)Nc1ccc2c(c1)OCCO2 | – | inactive: 0.45%
7 | Cc1ccc(S(=O)(=O)N2CCC[C@H]2C(=O)OCC(=O)N2CCc3ccccc32)cc1 | – | inactive: 1.46%
8 | CCN1C[C@@H]2[C@@H]3C(=O)N(Cc4ccccc4)C(=O)[C@@H]3[C@](Cc3ccccc3)(C1=O)N2C(=O)c1ccc(C(F)(F)F)cc1 | inconclusive [activator, full curve, poor fit] | –
9 | Cc1sc(NC(=O)Cn2cnnn2)nc1-c1ccc(Cl)cc1 | – | inactive: -1.54%
10 | CCC(C)Nc1nnnc2c1sc1nc3c(cc12)COC(C)(C)C3 (stereo unspecified) | inconclusive [activator, single point] | –
11 | CC(C)OC(=O)c1cccc(C(=O)OCc2ccco2)n1 | inconclusive [activator, single point] | –
12 | Cc1c(C(=O)N2CCN(Cc3ccccc3)CC2)oc2c1C(=O)CC(C)(C)C2 | inconclusive [activator, single point] | –
13 | Cc1ccc(OCC(=O)N2C(C)CCCC2C)c([N+](=O)[O-])n1 (stereo unspecified) | – | inactive: -1.69%
14 | CCN(CC)CCNC(=O)c1ccc2c(=O)n(C3CCCC3)c(=S)[nH]c2c1 | inconclusive [activator, full curve] | –
15 | CN1c2ccccc2Oc2nnc(N3CCN(Cc4ccccc4)CC3)cc21 | inconclusive [activator, single point] | –
16 | O=C(O)COc1ccc(/C=C/C(=O)c2ccc3ccccc3c2)cc1 | active: 18.4 µM | –
17 | COc1ccc(-c2noc(N3CCC(C(=O)Nc4ccccc4OC)CC3)n2)cc1 | – | inactive: 0.964%
18 | COC(=O)c1sccc1NC(=O)CSc1ccccc1NS(=O)(=O)c1cc(Cl)ccc1Cl | inconclusive [activator, single point] | –
19 | Cc1ccc(C(=O)NCC(=O)OCC(=O)/C=C2\N(C)c3ccccc3C2(C)C)cc1C | inconclusive [activator, single point] | –
20 | O=C(NC(=S)Nc1ccccc1N1CCCC1)c1cccc(F)c1 | – | inactive: 6.48%
21 | COc1ccc(C[C@H](N)C(=O)N[C@H]2[C@@H](O)[C@H](n3cnc4c(N(C)C)ncnc43)O[C@@H]2CO)cc1 | inconclusive [activator, single point] | –
22 | O=C(c1ncn[nH]1)N1CCN(c2nc(-c3ccccc3)cs2)CC1 | – | inactive: 1.04%

Row | Compound | Potency | activity, positive = re-replication
23 | O=C(NNC1=Nc2cccc3cccc1c23)c1ccccc1Br | inconclusive [activator, partial curve, poor fit] | –
24 | C/C(=N\NC(=S)NC1CCCCC1)c1cccc(C(F)(F)F)c1 | inconclusive [activator, partial curve, poor fit] | –
25 | Cc1cc(C)c(C#N)c(N2CCN(c3ccc(F)cc3)CC2)n1 | inconclusive [activator, partial curve] | –
26 | Cc1ccc(S(=O)(=O)N2CCC(c3nnc(SCCN4CCCC4)n3C)CC2)cc1 | inconclusive [activator, partial curve] | –
27 | CCOc1cc(-c2nc(C)c(C(C)=O)n2O)ccc1OCC(=O)Nc1ccc(F)cc1 | inconclusive [activator, full curve, poor fit] | –
28 | COc1ccccc1Nc1ncnc2c1c(C)c(C)n2CCCN(C)C | inconclusive [activator, full curve] | –
29 | C#CCOCCOCCOCCNc1nc(N2CCN(C(=O)Cn3cc(CCO)nn3)CC2)nc(N2CCN(C(=O)[C@H]([C@@H](C)O)n3cc(CCCCN)nn3)CC2)n1 | inconclusive [activator, partial curve, poor fit] | –
30 | CC(=O)n1cc([C@H]2C=C(C(=O)Nc3ccccc3)O[C@@H](OCc3ccc(CO)cc3)C2)c2ccccc21 | inconclusive [activator, single point] | –
31 | O=C1NCC(O)=C1C=NC12CC3CC(CC(C3)C1)C2 | active: 14.6 µM | –
32 | CC(C)Cc1nc(N2CCN(C(=O)c3ccccc3)CC2)c(C#N)c2c1CCC2 | inconclusive [activator, single point] | –
33 | CN(C)CCn1c(=N)n(CC(O)c2ccc(Cl)c(Cl)c2)c2ccccc21 (stereo unspecified) | inconclusive [activator, partial curve, poor fit] | –
34 | COc1ccc(NC(=O)COC(=O)c2ccc3ccccc3n2)c(OC)c1 | – | inactive: -2.16%
35 | COc1ccc2c(-c3ccccc3)cc(SCC(=O)NC(N)=O)nc2c1 | active: 5.8 µM | –
36 | Cc1cccc(C(=O)OCCN2CCOCC2)c1 | inconclusive [activator, single point] | –
37 | C[C@H](NC(=O)c1ccco1)C(=O)NC1CCCCCC1 | – | inactive: 0.248%
38 | CCOC(=O)c1nnn2c1nc(Nc1cccc(C(F)(F)F)c1)c1ccccc12 | inconclusive [activator, partial curve, poor fit] | –
39 | O=C1NC(=O)/C(=C\c2cn(Cc3ccccc3F)c3ccccc23)N1 | inconclusive [activator, single point] | –
40 | CCOc1ccc2c(c1)sc(N)[n+]2Cc1cc(C)cc2cccnc12 | active: 8.2 µM | –
41 | COc1cc(/C=N/NC(=O)c2ccccc2O)ccc1OCC(=O)Nc1ccccc1 | inconclusive [activator, single point] | –
42 | O=C(Nc1cccc(N=Cc2cc(Br)cc(Br)c2O)c1)c1ccco1 | inconclusive [activator, partial curve, poor fit] | –
43 | Cc1cc(C(=O)NNC(=S)NC(=O)/C=C/c2ccccc2Cl)n[nH]1 | inconclusive [activator, single point] | –
44 | O=C(NCc1nc(-c2ccc(C(F)(F)F)cc2)no1)Nc1cc(Cl)cc(Cl)c1 | inconclusive [activator, full curve, poor fit] | –

Row | Compound | Potency | activity, positive = re-replication
45 | Cn1c2ccccc2c2cc(/C=N/NC(=O)c3cc(O)ccc3O)ccc21 | active: 3.66 µM | –
46 | Cc1ccc(C(=O)NC(C(=O)Nc2ccccc2)c2ccccc2)cc1 (stereo unspecified) | inconclusive [activator, single point] | –
47 | Cc1ccc(NS(=O)(=O)c2cccc3nsnc23)cc1C | inconclusive [activator, single point] | –
48 | Cc1ccc(-c2cc(C(F)(F)F)n3nc(C(=O)Nc4c(C)n(C)n(-c5ccccc5)c4=O)cc3n2)cc1 | – | inactive: 10.9%
49 | O=C(CCC(=O)Nc1ccc(F)cc1)N/N=C/c1ccc(O)cc1O | – | inactive: 37.8%
50 | COc1cccc(NC(=O)CCC(=O)N2CC(C)Oc3ccc(C)cc32)c1 (stereo unspecified) | – | inactive: -7.2%
51 | O=C(COc1ccccc1F)N/N=C1\CCCc2ccccc21 | inconclusive [activator, single point] | –
52 | COc1ccc(S(=O)(=O)N2CCN(C(=O)c3cc4c(s3)CCCC4)CC2)cc1 | inconclusive [activator, partial curve, poor fit] | –
53 | CCN1CCN(C(=O)c2nn(C)c3c2CS(=O)(=O)c2ccccc2-3)CC1 | – | inactive: 0.987%
54 | Cc1cc(C(=O)OCC(=O)N2CCN(C(=O)c3ccco3)CC2)c(C)n1-c1ccc(F)cc1 | inconclusive [activator, single point] | –
55 | Cc1onc(-c2ccccc2)c1C(=O)NC(=S)NNC(=O)c1ccncc1 | inconclusive [activator, single point] | –
56 | Cc1ccc(C)c(-c2nc3cc(N)ccc3o2)c1 | inconclusive [activator, single point] | –
57 | Clc1ccc(CNc2ccccn2)cc1 | inconclusive [activator, partial curve, poor fit] | –
58 | N=c1c2c(-c3ccccc3)c(-c3ccccc3)n(Cc3ccco3)c2ncn1Cc1ccco1 | inconclusive [activator, single point] | –
59 | COc1ccc(C(=O)Nc2cc(S(=O)(=O)N3CCCC3)ccc2Cl)cc1 | inconclusive [activator, partial curve, poor fit] | –
60 | O=C(COc1ccc(Br)cc1Cl)N1CCN(c2ccccn2)CC1 | – | inactive: 3.32%
61 | CCNC(=S)Nn1cnc2ccccc21 | – | inactive: -2.31%
62 | O=C(/C=C/c1ccc(N2CCOCC2)cc1)c1ccccc1 | inconclusive [activator, partial curve, poor fit] | –
63 | Cc1nn(-c2ccccc2)c(N2CCCC2)c1/C=N/NC(=S)Nc1ccccc1F | inconclusive [activator, single point] | –
64 | CC(=O)Nc1ccc(N2Cc3ccccc3C2)cc1 | inconclusive [activator, partial curve, poor fit] | –
65 | C/C(CC(=O)Nc1ccc(Cl)c(C(F)(F)F)c1)=N\NC(=O)c1ccccc1O | inconclusive [activator, partial curve, poor fit] | –
66 | O=C(c1ccco1)N1CCN(CCCCOc2cccc3ccccc23)CC1 | – | inactive: 18.2%

From PubChem BioAssay AID624296 (National Center for Advancing Translational Sciences (NCATS), 2012)
